{"source": "the supplement of paper PMC3694890", "binders": {"B1": {"name": "FGFR4_643/A1 (peptide)", "chain": "yKKTSN"}, "B2": {"name": "FHL1_272/A1 (peptide)", "chain": "yCPDCA"}, "B3": {"name": "FGFR2_805/A1 (peptide)", "chain": "yEPCLP"}, "B4": {"name": "FGFR3_724/A1 (peptide)", "chain": "yMIMRE"}, "B5": {"name": "FGR_412/A1 (peptide)", "chain": "yNPCQG"}, "B6": {"name": "FGFR3_770/A1 (peptide)", "chain": "ySPGGQ"}, "B7": {"name": "FGFR3_760/A1 (peptide)", "chain": "yLDLSA"}, "B8": {"name": "FHL1_207/A1 (peptide)", "chain": "yYCVDC"}, "B9": {"name": "FGFR2_812/A1 (peptide)", "chain": "yPHING"}, "B10": {"name": "FGR_28/A1 (peptide)", "chain": "yGAADH"}, "B11": {"name": "ACTS_200/A1 (peptide)", "chain": "ySFVTT"}, "B12": {"name": "FGFR3_577/A1 (peptide)", "chain": "ySFDTC"}, "B13": {"name": "FLT3_166/A1 (peptide)", "chain": "yTLRRP"}, "B14": {"name": "FGFR4_754/A1 (peptide)", "chain": "yLDLRL"}, "B15": {"name": "FGR_34/A1 (peptide)", "chain": "yGPDPT"}, "B16": {"name": "FGR_523/A1 (peptide)", "chain": "yQPGDQ"}, "B17": {"name": "FHL1_213/A1 (peptide)", "chain": "yKNFVA"}}, "note": "± gives the uncertainty stated by the source. Some of the results follow. A small y stands for phosphotyrosine.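 Note: phosphopeptide probes on the chip at 1–4 µM, lysate proteins bound in 20 mM Tris pH 7.0 buffer with 140 mM NaCl, 1% Triton X-100 and 5% glycerol.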"}
{"biological_target": "GRB2 (endogenous complexes from cell lysate), P62993", "assay": "GRB2 complex binding differential signal (pY peptide minus Ala control peptide) (fluorescence intensity units); higher = stronger GRB2 complex binding", "settings": "MCF7"}
{"binder": "B1", "GRB2 complex binding differential signal": "407 ± 340"}
{"binder": "B2", "GRB2 complex binding differential signal": "210 ± 150"}
{"binder": "B3", "GRB2 complex binding differential signal": "498 ± 290"}
{"binder": "B4", "GRB2 complex binding differential signal": "368 ± 380"}
{"binder": "B5", "GRB2 complex binding differential signal": "60.2 ± 1200"}
{"binder": "B6", "GRB2 complex binding differential signal": "-818 ± 1900"}
{"binder": "B7", "GRB2 complex binding differential signal": "-29.6 ± 380"}
{"binder": "B8", "GRB2 complex binding differential signal": "84 ± 130"}
{"binder": "B9", "GRB2 complex binding differential signal": "268 ± 440"}
{"binder": "B10", "GRB2 complex binding differential signal": "668 ± 260"}
{"binder": "B11", "GRB2 complex binding differential signal": "99.6 ± 800"}
{"binder": "B12", "GRB2 complex binding differential signal": "164 ± 260"}
{"binder": "B13", "GRB2 complex binding differential signal": "1930 ± 370"}
{"binder": "B14", "GRB2 complex binding differential signal": "275 ± 580"}
{"binder": "B15", "GRB2 complex binding differential signal": "1490 ± 580"}
{"binder": "B16", "GRB2 complex binding differential signal": "629 ± 410"}
{"binder": "B17", "GRB2 complex binding differential signal": "55700 ± 7700"}
{"biological_target": "GRB2 (endogenous complexes from cell lysate), P62993", "assay": "GRB2 complex binding differential signal (pY peptide minus Ala control peptide) (fluorescence intensity units); higher = stronger GRB2 complex binding", "settings": "MCF10A"}
{"binder": "B1", "GRB2 complex binding differential signal": "377 ± 160"}
{"binder": "B2", "GRB2 complex binding differential signal": "79.7 ± 210"}
{"binder": "B3", "GRB2 complex binding differential signal": "230 ± 480"}
{"binder": "B4", "GRB2 complex binding differential signal": "503 ± 160"}
{"binder": "B5", "GRB2 complex binding differential signal": "-16.4 ± 380"}
{"binder": "B6", "GRB2 complex binding differential signal": "-157 ± 1200"}
{"binder": "B7", "GRB2 complex binding differential signal": "219 ± 230"}
{"binder": "B8", "GRB2 complex binding differential signal": "150 ± 390"}
{"binder": "B9", "GRB2 complex binding differential signal": "636 ± 220"}
{"binder": "B10", "GRB2 complex binding differential signal": "-53.8 ± 390"}
{"binder": "B11", "GRB2 complex binding differential signal": "484 ± 510"}
{"binder": "B12", "GRB2 complex binding differential signal": "65.8 ± 130"}
{"binder": "B13", "GRB2 complex binding differential signal": "1050 ± 530"}
{"binder": "B14", "GRB2 complex binding differential signal": "177 ± 170"}
{"binder": "B15", "GRB2 complex binding differential signal": "-806 ± 880"}
{"binder": "B16", "GRB2 complex binding differential signal": "998 ± 750"}
{"binder": "B17", "GRB2 complex binding differential signal": "48700 ± 8500"}
{"biological_target": "GRB2 (endogenous complexes from cell lysate), P62993", "assay": "GRB2 complex binding differential signal (pY peptide minus Ala control peptide) (fluorescence intensity units); higher = stronger GRB2 complex binding", "settings": "MDA-MB-231"}
{"binder": "B1", "GRB2 complex binding differential signal": "801 ± 370"}
{"binder": "B2", "GRB2 complex binding differential signal": "82.5 ± 300"}
{"binder": "B3", "GRB2 complex binding differential signal": "1020 ± 490"}
{"binder": "B4", "GRB2 complex binding differential signal": "334 ± 250"}
{"binder": "B5", "GRB2 complex binding differential signal": "166 ± 320"}
{"binder": "B6", "GRB2 complex binding differential signal": "278 ± 350"}
{"binder": "B7", "GRB2 complex binding differential signal": "515 ± 330"}
{"binder": "B8", "GRB2 complex binding differential signal": "242 ± 250"}
{"binder": "B9", "GRB2 complex binding differential signal": "435 ± 440"}
{"binder": "B10", "GRB2 complex binding differential signal": "613 ± 400"}
{"binder": "B11", "GRB2 complex binding differential signal": "2830 ± 640"}
{"binder": "B12", "GRB2 complex binding differential signal": "172 ± 270"}
{"binder": "B13", "GRB2 complex binding differential signal": "882 ± 320"}
{"binder": "B14", "GRB2 complex binding differential signal": "342 ± 380"}
{"binder": "B15", "GRB2 complex binding differential signal": "767 ± 340"}
{"binder": "B16", "GRB2 complex binding differential signal": "501 ± 370"}
{"binder": "B17", "GRB2 complex binding differential signal": "4180 ± 540"}
{"biological_target": "GRB2 (endogenous complexes from cell lysate), P62993", "assay": "GRB2 complex binding differential signal (pY peptide minus Ala control peptide) (fluorescence intensity units); higher = stronger GRB2 complex binding", "settings": "T47D"}
{"binder": "B1", "GRB2 complex binding differential signal": "1050 ± 1700"}
{"binder": "B3", "GRB2 complex binding differential signal": "1040 ± 1200"}
{"binder": "B4", "GRB2 complex binding differential signal": "174 ± 710"}
{"binder": "B5", "GRB2 complex binding differential signal": "371 ± 1500"}
{"binder": "B6", "GRB2 complex binding differential signal": "49.7 ± 1200"}
{"binder": "B7", "GRB2 complex binding differential signal": "609 ± 1100"}
{"binder": "B8", "GRB2 complex binding differential signal": "190 ± 1000"}
{"binder": "B9", "GRB2 complex binding differential signal": "217 ± 1200"}
{"binder": "B10", "GRB2 complex binding differential signal": "406 ± 1300"}
{"binder": "B11", "GRB2 complex binding differential signal": "10900 ± 2600"}
{"binder": "B12", "GRB2 complex binding differential signal": "31.1 ± 910"}
{"binder": "B13", "GRB2 complex binding differential signal": "368 ± 940"}
{"binder": "B14", "GRB2 complex binding differential signal": "579 ± 950"}
{"binder": "B15", "GRB2 complex binding differential signal": "366 ± 880"}
{"binder": "B16", "GRB2 complex binding differential signal": "245 ± 900"}
{"binder": "B17", "GRB2 complex binding differential signal": "21200 ± 5600"}
